Results taken from PubChem BioAssay (Tox21).
Values joined by “and” are separate entries in the source; they are usually repeats but may differ in a detail not shown here. Equal values may be shown once. The shares of active, inactive and inconclusive entries below differ from those in the screen. Potencies beside an inconclusive call are fits to weak or partial responses and may not hold up. Active and inactive are the calls of the source. Calls come from the whole dose curve; as a rule, active = well fitted activation curve with a large enough effect in the repeat runs; inconclusive = weak or mixed curves, or effect the other way; inactive = no such curve, though single readings can be large or run the other way.

Target: Estrogen receptor (Homo sapiens) (UniProt P03372)
Assay: qHTS assay to identify small molecule agonists of the estrogen receptor alpha (ER-alpha) signaling pathway using the BG1 cell line (AID 743079); note: nearly all actives have a fitted effect of over 20% in size
Settings: BG1Luc4E2 cells, ERE-luciferase agonist, 22 h; activation: at 70.3 µM (top of the series) unless noted
% is set by controls: 0 for no effect and ±100 for the full control effect; potency is the fitted concentration of half-maximal effect; tags give direction and shape of the fitted curve.

Chain of UniProt P03372 (P03372 whole entry, looked up): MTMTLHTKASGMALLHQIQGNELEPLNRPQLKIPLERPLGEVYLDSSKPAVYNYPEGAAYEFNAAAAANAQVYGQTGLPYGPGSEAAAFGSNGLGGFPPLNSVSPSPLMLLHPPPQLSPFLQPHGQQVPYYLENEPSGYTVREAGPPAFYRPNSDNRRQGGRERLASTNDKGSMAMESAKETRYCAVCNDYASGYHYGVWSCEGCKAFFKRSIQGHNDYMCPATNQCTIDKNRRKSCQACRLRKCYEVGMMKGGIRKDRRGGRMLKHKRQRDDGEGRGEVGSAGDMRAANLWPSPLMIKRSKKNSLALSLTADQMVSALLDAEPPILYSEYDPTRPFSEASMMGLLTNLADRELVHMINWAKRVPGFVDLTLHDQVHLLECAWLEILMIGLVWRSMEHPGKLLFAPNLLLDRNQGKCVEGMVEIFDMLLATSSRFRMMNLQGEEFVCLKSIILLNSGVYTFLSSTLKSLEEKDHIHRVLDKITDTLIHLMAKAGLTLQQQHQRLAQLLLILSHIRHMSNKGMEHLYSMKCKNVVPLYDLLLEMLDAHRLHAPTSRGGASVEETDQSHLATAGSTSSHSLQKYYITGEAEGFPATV

Row | Compound | Potency | activation
1 | CCOC(=O)C1(c2ccccc2)CCN(CCC(C#N)(c2ccccc2)c2ccccc2)CC1 | inconclusive: 21.1 µM [inhibitor, partial curve] and inconclusive: 23.7 µM [inhibitor, full curve] | 
2 | c1cc2ccc3cccc4ccc(c1)c2c34 |  | inactive: 12% [at 95 µM]
3 | CCCCCCCCCCOC(=O)c1ccccc1C(=O)OCCCCCCCCCC |  | inactive: 2.84%
4 | Nc1c(Cl)cc([N+](=O)[O-])cc1Cl | inconclusive: 34.4 µM [inhibitor, partial curve] | 
5 | CO/C=C(/C(=O)OC)c1ccccc1Oc1cc(Oc2ccccc2C#N)ncn1 | inconclusive: 9.37 µM [inhibitor] | 
6 | CC(C)N(C(=O)CCl)c1ccccc1 | inconclusive: 54.5 µM [inhibitor, partial curve] | 
7 | Oc1c(Br)c(Br)c(Br)c(Br)c1Br | inconclusive: 61.5 µM [inhibitor, partial curve] | 
8 | CC1(c2ccc(Oc3ccccc3)cc2)OC(=O)N(Nc2ccccc2)C1=O (configuration not stated) | inconclusive: 1.73 µM [inhibitor, full curve] | 
9 | CCN(CC)c1c([N+](=O)[O-])cc(C(F)(F)F)c(N)c1[N+](=O)[O-] |  | inconclusive: 11% [phenotype inactive]
10 | O=C(CCl)Nc1ccccc1 | inconclusive: 61.1 µM [inhibitor] | 
11 | CCOP(=S)(OCC)Oc1cc(C)nc(N(CC)CC)n1 |  | inconclusive: -8.56% [phenotype inactive]
12 | Oc1cc(Cl)c(Cl)c(Cl)c1Cl | inconclusive: 59.7 µM [inhibitor, partial curve] | 
